Laboratory results as given in the supplement of paper PMC12217912.
The other results are listed elsewhere or left out. The full chains were built here from the parent and the listed change. Values near 0.05 are background.

B1: TEV protease; numbered along this chain (parent)
chain: MGESLFKGPRDYNPISSSICHLTNESDGHTTSLYGIGFGPFIITNKHLFRRNNGTLVVQSLHGVFKVKDTTTLQQHLVDGRDMIIIRMPKDFPPFPQKLKFREPQREERICLVTTNFQTKSMSSMVSDTSCTFPSGDGIFWKHWIQTKDGQCGSPLVSTRDGFIVGIHSASNFTNTNNYFTSVPKNFMELLTNQEAQQWVSGWRLNADSVLWGGHKVFMVKPEEPFQPVKEATQL

Variants of: B1
Test: raw area under fraction-flipped curve 0-4 h after induction (AUC4h, not background-subtracted), DNA-recorder readout of cleavage of the substrate (dimensionless); higher = more cleavage of the substrate by the protease variant
Settings: temperature: 34 °C; time window: 0-4 h after rhamnose induction
Method: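 In vivo DNA recorder in E. coli TOP10(DE3) ΔrhaA at 34 °C. Each TEVp single-site mutant (parent TEVp 0) is paired with a single-site variant of the 7-mer TEVs (canonical ENLYFQ|S). The substrate sits between flexible linkers in a Bxb1-sfGFP-TEVs-SsrA fusion, so cleavage stabilises Bxb1 and speeds flipping of a recombination array, read by NGS. The value is the raw area under the fraction-flipped curve over 0-4 h after rhamnose induction (AUC4h), with ≥20 reads per time point. It is not background-subtracted; inactive controls average about 0.047.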
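Note: Bxb1 expression induced with 0.2% (w/v) L-rhamnose at OD600 near 0.5, cultures sampled hourly, flipped fraction per protease–substrate barcode pair counted by paired-end Illumina sequencing.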

| Variant | area with substrate ENAYFQS | area with substrate ENCYFQS | area with substrate ENDYFQS | area with substrate ENEYFQS | area with substrate ENFYFQS | area with substrate ENGYFQS | area with substrate ENHYFQS | area with substrate ENKYFQS | area with substrate ENMYFQS | area with substrate ENNYFQS | area with substrate ENQYFQS | area with substrate ENRYFQS | area with substrate ENTYFQS | area with substrate ENVYFQS | area with substrate ENWYFQS | area with substrate ENYYFQS | area with substrate ENSYFQS | area with substrate ENIYFQS | area with substrate ENPYFQS |
| --- | --- | --- | --- | --- | --- | --- | --- | --- | --- | --- | --- | --- | --- | --- | --- | --- | --- | --- | --- |
| T30Y | 0.061 | 0.0652 | 0.0598 | 0.066 | 0.0647 | 0.0705 | 0.0578 | 0.0611 | 0.108 | 0.0568 | 0.0707 | 0.0523 | 0.0701 | 0.0769 | 0.073 | 0.0559 | – | – | – |
| T30L | 0.0653 | – | 0.0729 | 0.0639 | – | 0.0544 | – | 0.0575 | 0.112 | 0.0628 | 0.0583 | 0.0479 | 0.0652 | 0.0877 | 0.0099 | – | 0.0605 | – | – |
| D27C | 0.0546 | 0.0654 | 0.066 | 0.0733 | 0.0421 | – | – | 0.0683 | – | 0.0559 | 0.0601 | 0.0418 | 0.0589 | 0.077 | – | 0.0563 | 0.0688 | – | – |
| G37I | 0.0755 | 0.0569 | 0.0551 | 0.053 | 0.0507 | 0.0571 | 0.0559 | – | 0.0663 | 0.0538 | 0.0647 | 0.0566 | 0.073 | – | – | – | 0.0504 | 0.0997 | 0.0564 |
| G37T | 0.057 | 0.0651 | 0.0381 | 0.0577 | – | 0.0659 | 0.0535 | – | 0.0619 | 0.0607 | 0.0501 | 0.0565 | 0.0584 | 0.0466 | 0.0449 | 0.0588 | – | 0.102 | – |
| G37W | 0.0802 | 0.0607 | 0.0529 | 0.0589 | 0.0562 | 0.0936 | – | 0.0506 | 0.0688 | 0.0616 | 0.0532 | – | 0.0517 | 0.0581 | – | – | 0.0494 | 0.0847 | 0.0511 |
| I36T | 0.0546 | 0.0723 | 0.0614 | 0.064 | – | 0.0621 | 0.044 | – | – | 0.0552 | 0.0704 | 0.0569 | 0.0473 | 0.067 | 0.0231 | 0.0648 | 0.0598 | – | 0.0512 |
| I36H | 0.0443 | 0.0606 | 0.0457 | 0.0469 | 0.0456 | 0.0467 | 0.0407 | – | 0.0551 | 0.0509 | 0.0446 | – | 0.0448 | – | – | 0.0671 | 0.0489 | 0.054 | 0.0559 |
| I36M | 0.0602 | 0.0549 | 0.0637 | 0.0697 | – | 0.0562 | 0.0585 | 0.0678 | – | 0.0468 | 0.058 | 0.0463 | 0.0531 | 0.0739 | 0.0451 | – | 0.0557 | – | 0.0402 |
| I36W | 0.0495 | 0.0454 | 0.0558 | – | 0.0366 | 0.0517 | 0.0548 | – | 0.0467 | 0.0691 | 0.057 | 0.0573 | 0.0524 | 0.0554 | 0.0255 | 0.0476 | 0.0523 | 0.0531 | 0.044 |
| I36Y | 0.0505 | 0.0512 | 0.0519 | 0.0494 | 0.0497 | – | 0.0596 | 0.0468 | – | – | 0.0415 | 0.0431 | 0.0437 | – | – | – | 0.0447 | 0.053 | 0.0268 |
| I36S | 0.0393 | 0.063 | 0.0491 | 0.0534 | 0.0539 | 0.0585 | – | 0.063 | 0.056 | 0.0469 | 0.0528 | 0.0477 | 0.0506 | 0.0678 | 0.0342 | – | 0.0571 | 0.0783 | 0.0449 |
| T31A | 0.0959 | – | – | 0.0612 | 0.0635 | – | 0.0537 | 0.0518 | 0.0881 | 0.066 | 0.0563 | 0.0541 | 0.0524 | 0.0779 | – | 0.0171 | 0.0619 | – | – |
| L33I | 0.0622 | – | 0.06 | 0.0636 | 0.0553 | 0.0583 | – | 0.0592 | 0.0593 | 0.0643 | 0.0517 | 0.0495 | 0.0689 | 0.0676 | – | – | – | – | 0.0626 |
| L33M | 0.0618 | – | 0.0719 | 0.0646 | 0.0613 | 0.0644 | – | 0.0549 | 0.0551 | 0.0527 | 0.0504 | – | 0.087 | 0.0633 | 0.0602 | 0.0724 | 0.0607 | – | 0.0509 |
| G28D | 0.0544 | 0.0797 | 0.0574 | 0.0643 | 0.0594 | 0.0573 | – | 0.0668 | 0.062 | 0.0578 | 0.0651 | 0.0536 | 0.0663 | 0.0651 | – | 0.0613 | 0.0757 | 0.0933 | 0.0586 |
| G28I | 0.0453 | 0.0574 | 0.0516 | 0.064 | – | 0.0528 | 0.0561 | 0.0563 | 0.0679 | – | 0.0525 | 0.0554 | 0.0633 | 0.0659 | 0.011 | 0.0616 | 0.0528 | – | – |
| F38C | 0.0632 | – | 0.0651 | 0.0482 | 0.054 | 0.0542 | – | 0.0699 | 0.0754 | – | 0.0547 | 0.0546 | 0.0589 | 0.0504 | – | 0.0308 | 0.0573 | – | – |
| S26N | 0.0557 | 0.0495 | 0.0579 | 0.0508 | 0.0579 | – | 0.0519 | 0.072 | – | 0.045 | 0.0571 | 0.0598 | 0.0693 | 0.0698 | 0.0578 | 0.0514 | 0.067 | – | 0.0264 |
| S26L | 0.0557 | 0.0642 | 0.0597 | 0.0458 | 0.0554 | 0.0446 | 0.0587 | 0.0498 | – | – | 0.0513 | 0.0693 | 0.0576 | 0.0687 | – | 0.057 | 0.0686 | 0.0522 | 0.0536 |
| S26P | 0.0596 | 0.0508 | – | 0.0467 | 0.0454 | 0.0627 | – | 0.0544 | 0.0676 | 0.0349 | 0.0378 | – | 0.0506 | 0.0456 | 0.058 | 0.0586 | – | 0.0784 | – |
| S26W | 0.0509 | 0.069 | 0.0637 | 0.0592 | 0.0599 | 0.0747 | 0.0592 | – | 0.0742 | 0.068 | 0.0494 | 0.0614 | 0.0569 | 0.0715 | – | – | 0.0468 | 0.0808 | 0.0615 |
| H29C | 0.0651 | 0.0712 | 0.0606 | 0.0556 | 0.0574 | – | 0.0565 | 0.076 | 0.0664 | – | 0.0715 | – | 0.073 | 0.0844 | 0.0635 | 0.0735 | 0.0642 | – | 0.0605 |
| H29N | 0.0634 | 0.069 | 0.0695 | 0.0634 | 0.0629 | 0.0631 | 0.0616 | 0.06 | 0.0802 | 0.0657 | 0.0715 | 0.0531 | 0.063 | – | 0.0522 | 0.0474 | 0.0628 | – | 0.0657 |
